In ChEMBL document CHEMBL4888484, “Replenishing the malaria drug discovery pipeline: Screening and hit evaluation of the MMV Hit Generation Library 1 (HGL1) against asexual blood stage Plasmodium falciparum ,using a nano luciferase reporter read-out” (2022):
In all, about 150,000 compounds went through this assay and about 540 (0.36%) showed an effect of 50% or more. The list shows a part of the results.

tested on: Plasmodium falciparum; experiment: Primary screen in NF54 nanoGlo assay, in single point, at 2uM, 72h; a lower Z score goes with more inhibition; type: functional, Erythrocyte; settings: timepoint 72 hour

Compound	% Inhibition [%]	Z score
CN(C)C[C@H]1C[C@H](CO)CN(C(=O)c2ccccc2OCc2ccccc2)C1	-1	0.16
O=C(NCc1ncc[nH]1)[C@H]1CCC(=O)N(C2CCCCCC2)C1	-14	1.3
Cc1[nH]nc(C(=O)NC2CC(C)(F)C2)c1C (stereo not given)	-4	0.41
Cc1oc(C(C)(C)C)cc1-c1nc([C@H]2CCC(=O)NC2)no1	-2	0.32
Cc1c(C#N)nn(-c2cccnc2)c1NC(=O)c1ccc(Cl)c(Cl)c1	-8	0.85
COc1ccc([C@H]2CC(=O)Nc3c2cnn3Cc2cccs2)cc1	-3	0.35
COc1ccc(CNC(=O)C2=NO[C@@H](Cc3nc4ccccc4o3)C2)cc1	-11	1.2
O=C1CCC2(CCN(Cc3cc(Cl)ccc3F)CC2)CN1C1CC1	-5	0.98
O=C(NC[C@H](O)CN1CCCC1=O)c1cc(-c2ccccc2)nc2ccccc12	-12	1.82
Cc1cccc(Nc2nc3c(s2)CCC3)c1	32	-3.57
C=CCn1c(=O)c2sc(N(CC)CC)nc2n(CC(=O)Nc2ccc(C)c(F)c2)c1=O	-9	0.79
Cc1nc2ccc(F)cc2c(=O)n1CC(=O)N1CCN(c2ccccn2)CC1	-4	0.57
CCC(CC)N(CN1C(=O)NC2(CCCCC2)C1=O)C1CC1	3	-0.62
CC(NC(=O)CCC1CCCCC1)C1CCCO1 (stereo not given)	-9	0.79
CCCN1CCN(C(=O)c2ccnc(N3CCN[C@H](c4ccccc4)C3)c2)CC1	-13	1.36
CN(Cc1ccccc1)c1cnn(CCC(N)=O)c(=O)c1	-11	1
CCc1nc(N(CCC(=O)N2CCOCC2)Cc2ccco2)c2cc(Cl)cc(Cl)c2n1	-5	0.74
Cc1cccc(NC(=O)NCC2(CS(C)(=O)=O)CC2)c1Cl	-1	0.12
Cc1ccc(S(=O)(=O)N2CC[C@H](n3ccnn3)C2)s1	-19	3.27
COCCCC1(CNCc2noc3c2CCCC3)CCC1	0	0.07
Cc1ccccc1-c1noc(-c2cc3n(n2)C[C@@H](c2ccccc2)OC3)n1	-6	0.72
C[C@H]1CCCN(CCNS(=O)(=O)Cc2cc(Cl)ccc2F)C1	-10	1.42

Compound	% Inhibition [%]	Z score
O=C(O)C1(n2cnnn2)CCC(c2ccccc2)CC1 (stereo not given)	-2	0.25
O=C(Cc1nnc(-c2ccccc2)o1)NCCC1=CCCCC1	0	0.01
CCn1nc(N2CCC[C@H](NC(=O)c3cn(C)nc3C)C2)ccc1=O	-10	1.32
CCC(c1ccc(F)cc1)c1nnc(C(CC)c2ccc(F)cc2)o1 (stereo not given)	-6	0.72
Cc1ccc(-c2nn(C)c(=O)c3c2CCCC3)cc1S(=O)(=O)NC[C@H]1CCCO1	-16	2.48
O=C(O)CC1(CN2C3CCC2CC(O)(Cc2ccc(F)cc2F)C3)CC1 (stereo not given)	-8	1.59
O=C1c2ccccc2C(=O)N1CCN1C(=O)COc2ccccc21	-4	0.53
Nc1ccccc1-c1nc(-c2c[nH]c3ccccc23)cs1	-6	0.85
CCc1onc(C)c1NC(=O)N[C@@H]1c2ccccc2OC[C@@H]1CO	-3	0.4
COc1cc(Cl)cc(CN2CC[C@H](N)C2)c1OC(C)C	-2	0.28
O=C(O)C[C@H]1CNCCN(C(=O)c2ccccc2-c2ccccc2)C1	-11	1
CC1CNCCN1C(=O)C1COc2ccccc21 (stereo not given)	-22	3.19
C[C@H](NCCC(N)=O)c1cccc(Cl)c1	-15	2.39
NC(=O)CNC(=O)C1(Cc2cccc(Cl)c2)CCCC1	-14	1.37
Cc1ccc(N2C[C@@H](C(=O)Nc3ccc(N4CCCC4=O)c(C)c3)CC2=O)cc1	0	0.04
O=C(Nc1ccc(-n2cnnn2)cc1)c1cccc(S(=O)(=O)N2CCOCC2)c1	5	-0.67
N#Cc1cccc(CN[C@@H]2CO[C@H](CNC(=O)C3CCCC3)[C@H]2O)c1	25	-2.9
CN(C)S(=O)(=O)N(Cc1cccs1)Cc1cccs1	-6	0.7
CCCCn1nc([C@H]2CCOC2)nc1-c1cc(C#N)c[nH]1	-11	1.64
COc1ccc(NC(=O)[C@H](C(C)C)N(Cc2ccc(Cl)cc2)C(=O)Cn2nnc3ccccc32)cc1	-1	0.11
CN(CC(=O)Nc1ccc2c(c1)OCCO2)S(=O)(=O)c1c[nH]c(C(=O)N2CCCCC2)c1	4	-0.4
Cc1cc(C)cc(Cc2noc([C@@H]3CCCO3)n2)c1	4	-0.66

Compound	% Inhibition [%]	Z score
CC(C)(C)CNC(=O)c1[nH]cnc1C(=O)N[C@H]1CC[C@H](O)CC1	14	-1.64
COc1ccc(/C=C/CN2C[C@H]3CCC[C@@H](C2)N(C)C3)cc1	-11	1.49
Cc1csc(NC(=O)C(=O)NCC2CC2)n1	-11	1.56
CCCN1C[C@@H](Nc2nc(-c3cccnc3)nc3c2CCNC3)CC1=O	6	-0.82
CC1(CC(F)F)CN(C(=O)c2nnc(-c3ccc(F)cn3)o2)C1	-14	1.81
CCn1cc(CNc2cnccc2OC(C)(C)C)cn1	2	-0.23
Cc1nc(CN2CCOC[C@H]2c2nc[nH]n2)sc1C(C)(C)C	-4	0.57
CCC(=O)N1CCCN(C(=O)c2cc(C(C)C)on2)CC1	-5	0.67
NC(=O)[C@@H]1CN(Cc2ccc(-c3ccc(Cl)cc3)s2)CCO1	-11	1.78
COC1CC(C(=O)N2CC3CC2(C(N)=O)C3)C1 (stereo not given)	18	-2.25
Cn1nc(C(=O)N2CC(C)(C)Oc3ccccc32)cc1OC(F)F	6	-0.82
Cc1ccc(-n2cc3c(c2-c2ccc(Cl)cc2)c(=O)n(-c2ccccc2)n3C)cc1	-11	1.41
CCOCCNC(=O)C[C@]1(C(=O)NCCOCC)CCN(C(=O)OC(C)(C)C)C1	-5	0.7
CCOc1cc(-c2c(-c3ccccc3)ncn2Cc2c(C)n[nH]c2C)ccc1OC	12	-1.59
COc1cc(C(=O)NCC(=O)NCc2cccnc2OC)cc(OC)c1OC	-4	0.67
CCN([C@H]1CCCc2cccnc21)S(=O)(=O)c1ccco1	-8	1.18
CC(C)(CC(=O)O)CC(=O)Nc1cccc(Cl)c1C(N)=O	1	-0.15
CCC(=O)N1CCC[C@H](C(=O)Nc2c(C(C)C)c(C)nc3ccccc23)C1	-3	0.44
CCc1nc2c(=O)n(CC(=O)NC3CCCC3)nc(C)c2s1	10	-1.33
CC(=O)N(C)OC(=O)Nc1cccc(Cl)c1	-8	1.02
O=C(NCCNC1CCCC(C(F)(F)F)C1)c1cccs1 (stereo not given)	-11	1.31
CN(C(=O)c1ccnc(C2CC2)n1)C1CCN(c2cnccn2)CC1	-18	2.94

Compound	% Inhibition [%]	Z score
C[C@@H]1CN(C(=O)CN2CCn3nc(Cc4ccccc4)cc3C2)C[C@H](C)O1	-8	1.2
COC[C@@H]1[C@H](C(=O)Nc2cc(OC)ccc2OC)CCC(=O)N1C	-12	1.42
CCc1ncc(C(=O)N(Cc2ccccc2)Cc2ncccc2C)cn1	-2	0.16
Cc1nc([C@H]2CCCN2CC(O)COC2CCOCC2)cs1 (stereo not given in full)	-4	0.67
Cc1cncc(C(=O)NCc2nnc(C(C)(C)C)s2)c1O	14	-1.8
O=C(c1ccc2[nH]ccc2c1)N1C[C@H]2CC[C@@H](O)[C@H]2C1	-13	1.25
Cc1nnc2ccc(N3CCCC3CC(O)c3ccc(F)cc3)nn12 (stereo not given)	-13	1.53
COc1ccc(N2CCN(C(=O)CN(CC3CCC3)CC(F)(F)F)CC2)cc1	-3	0.39
CC1CCN(C(=O)Nc2cccc3c2OCCC3)CC1C(=O)O (stereo not given)	0	-0.03
Cc1cccc(CCn2c(=O)c3ccccc3n(CC(=O)NCc3ccco3)c2=O)c1	-8	1.3
O=C(N[C@H]1CCN2C(=O)[C@@H](Cc3ccccc3)NC(=O)[C@H]12)c1cnccn1	13	-1.53
COc1ccc(-c2cn3c(C(=O)N(C)CCc4ccccn4)csc3n2)cc1F	-14	1.96
Cc1nc(C(C)C)sc1[C@H](C)N(C)Cc1nnsc1Cl	-10	1.06
Cc1cccc(OC2CCCCC2NC(=O)c2c[nH]nn2)c1 (stereo not given)	-11	1.76
CCC1(CC)C(=O)N(C)C(=O)N/C1=N\Nc1ccccc1	29	-3.73
Cn1c(C(=O)NCCCn2ccnc2)cc2oc(-c3ccccc3Cl)cc21	5	-0.83
Cc1c(-c2nn3c(Cc4ccccc4)nnc3s2)nnn1-c1ccc(Cl)cc1	-7	1.12
COC(=O)c1ccc(F)c(NCC(=O)N2CCCCCCC2)c1	-6	0.76
CC(C)(C)c1ccc(Oc2nc3ccccc3nc2N2CCCCCC2)cc1	-9	1.03
